For 91 compounds, Potency results are on record in PubChem BioAssay AID360 (National Center for Advancing Translational Sciences (NCATS), 2006).

Structures are written as SMILES. The campaign covered roughly 48,000 compounds. About 550 (1.1%) were called active. Roughly 4% stayed inconclusive and do not appear here. Cut-off read from the data, not from the text of the source: active = potency below about 15 µM; inconclusive = mostly about 16 µM to 33 µM; inactive = weaker than that. This is one part of the list.
Potency is the fitted concentration of half-maximal effect.

Chain of UniProt P04062 (P04062 whole entry, looked up): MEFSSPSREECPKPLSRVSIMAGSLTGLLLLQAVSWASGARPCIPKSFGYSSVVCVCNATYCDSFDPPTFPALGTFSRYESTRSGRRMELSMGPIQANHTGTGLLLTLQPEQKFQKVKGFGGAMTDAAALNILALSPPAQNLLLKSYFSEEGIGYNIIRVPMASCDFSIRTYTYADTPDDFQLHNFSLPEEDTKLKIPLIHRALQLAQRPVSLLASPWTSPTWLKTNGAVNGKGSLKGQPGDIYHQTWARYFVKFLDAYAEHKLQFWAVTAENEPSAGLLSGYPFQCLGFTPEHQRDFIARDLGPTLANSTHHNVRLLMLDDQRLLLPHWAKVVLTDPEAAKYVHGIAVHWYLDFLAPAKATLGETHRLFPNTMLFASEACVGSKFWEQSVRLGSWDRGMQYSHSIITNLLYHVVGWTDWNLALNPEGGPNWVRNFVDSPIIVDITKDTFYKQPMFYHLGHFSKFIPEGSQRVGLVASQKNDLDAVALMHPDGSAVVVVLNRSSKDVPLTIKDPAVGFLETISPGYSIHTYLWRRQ

For this assay, the target named is Lysosomal acid glucosylceramidase (Homo sapiens) (UniProt P04062). The assay is described as follows: Glucocerebrosidase.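 Note: the screen sought inhibitors.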 To be noted: purified enzyme, resorufin glucoside fluorescence (screen aimed at inhibitors), 20 min; series mostly up to 77 µM. The method, boiled down:
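Wild-type enzyme at 0.2 nM final in 50mM citric acid/KH2PO4, 10mM sodium taurocholate, 0.01% tween-20, pH 5.9, with resorufin beta-D-glucopyranoside at 30 uM final. Compounds titrated, 20 min at RT, red fluorescence read; AC50 from titration.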
For `COc1cc(-c2nnc(-c3cccs3)o2)cc(OC)c1OC`, the Potency was inactive: > 76.9 µM.
As to `CC(=O)C1=C(O)C(=O)N(CCc2c[nH]c3ccccc23)C1c1cccc(O)c1` (stereo unspecified), the Potency was inactive: > 76.9 µM.
Turning to `COC(=O)c1cccc(Cn2nnc3ccccc3c2=O)c1`, the Potency is inactive: > 76.9 µM.
In the case of `COc1ccc(CCNC(=O)Cn2c(-c3nonc3N)nc3ccccc32)cc1OC` it was inactive: > 76.9 µM; in that of `CCCCOC(=O)C1[C@H]2C(=O)N(c3ccccc3CC)C[C@]23C=C[C@H]1O3` (stereo partly specified), inactive: > 76.9 µM; in that of `Fc1ccccc1N1CCN(Cc2nc(-c3ccccc3)no2)CC1`, inactive: > 76.9 µM.
In the case of `CCOC(=O)Cc1nnc(NC(=O)CC)s1` it was inactive: > 76.9 µM; in that of `CC(=O)c1ccc(N2CCN(C(=O)c3ccc4c(=O)n(-c5ccccc5)c(=O)[nH]c4c3)CC2)cc1`, inactive: > 76.9 µM.
In the case of `CCC(=O)c1cccc2c1N=CC1=C(CC(C)(C)CC1=O)N2` it was inactive: > 76.9 µM; in that of `CCC(=O)Nc1nc(C)cc(SCC(=O)OC)n1`, inactive: > 76.9 µM.
Take `CN(C)S(=O)(=O)N(CC(=O)NCc1ccccc1)c1ccccc1`: the Potency is inactive: > 76.9 µM.
For `O=C(NCc1ccccc1)NC1(C(=O)N2CCCC2)CCCCC1`, the Potency was inactive: > 76.9 µM.
As to `CC(C)(C)c1nc(SCC(=O)NCc2ccco2)c2ccccc2n1`, the Potency is inactive: > 76.9 µM.
As to `CCN=C1SC(CC(=O)NC(N)=O)C(=O)N1CC` (stereo unspecified), the Potency was inactive: > 76.9 µM.
`O=C(NCCSCc1c(F)cccc1Cl)c1ccco1`: the Potency is inactive: > 76.9 µM.
For `CC(C)Cn1c(N)c(C(=O)CSc2nnnn2-c2ccc(Cl)cc2)c(=O)n(C)c1=O` the value was inactive: > 76.9 µM; for `CCOC(=O)N1CCC(NC(=O)CC(NS(=O)(=O)c2ccc(Cl)cc2)c2ccco2)CC1` (stereo unspecified), inactive: > 76.9 µM.
As for `Cc1c(C)c2c(C)[nH]nc2oc1=O`, the Potency was inactive: > 76.9 µM.
Take `Cc1ccc(NC(=O)N2CCC(C(=O)NCc3ccccc3)CC2)cc1`: the Potency is inactive: > 76.9 µM.
In the case of `CCC1S/C(=C(\C#N)C(=O)NCc2ccco2)N(c2ccc(Br)cc2)C1=O` (stereo unspecified), the Potency was inactive: > 76.9 µM.
For the compound `O=C(NCc1ccco1)c1nc2nc(-c3cccs3)cc(C(F)(F)F)n2n1`, the Potency is inactive: > 76.9 µM.
Take `N#CC(C(=O)c1ccc(S(=O)(=O)N2CCCCCC2)cc1)c1nc2ccccc2[nH]1` (stereo unspecified): the Potency is inactive: > 76.9 µM.
On to `Cc1cccc2cc(CN(CC3CCCO3)S(=O)(=O)c3ccccc3)c3nnnn3c12` (stereo unspecified), for which the Potency was inactive: > 76.9 µM.
Regarding `COC(=O)C1=C(NC(=O)c2ccc(C)c(C)c2)CCS1`, the Potency was inactive: > 76.9 µM.
On to `CC(=O)NCC(=O)NC1(C(=O)NC2CCCC2)CCCCC1`, for which the Potency was inactive: > 76.9 µM.
In the case of `CCCCc1nc2ccccc2c(=O)n1NC(=O)c1c(O)c2cccc3c2n(c1=O)CC3`, the Potency was inactive: > 76.9 µM.
For `CCOC(=O)c1[nH]cnc1C(=O)NC1CCCCC1` the value was inactive: > 76.9 µM; for `COCCN1CSC(=S)N(Cc2ccco2)C1`, inactive: > 76.9 µM.
Turning to `Cc1cc(C)n(-c2nc(C)nc3c2cnn3-c2ccccc2)n1`, the Potency is inactive: > 76.9 µM.
As for `COc1ccc(Cn2c(C)nc3c(c2=O)c2nc4ccccc4nc2n3Cc2ccco2)cc1`, the Potency is inactive: > 76.9 µM.
In the case of `O=S(=O)(c1cccc2nsnc12)N1CCOCC1` it was inactive: > 76.9 µM; in that of `CCOC(=O)C1CCN(C(=O)c2ccco2)CC1`, inactive: > 76.9 µM.
For `O=C(c1ccco1)N1CCCC(c2ccccc2)C1` (stereo unspecified), the Potency is inactive: > 76.9 µM.
In the case of `O=c1[nH]c2cccnc2n1Cc1ccco1` it was inactive: > 76.9 µM; in that of `CC(=C/C(=O)O)/C=C/c1cccs1`, inactive: > 76.9 µM.
For `O=C(c1cc(S(=O)(=O)N2CCOCC2)ccc1F)N1CCCc2ccccc21`, the Potency is inactive: > 76.9 µM.
For `COC(=O)c1ccc(NC(=O)CN(C)S(=O)(=O)c2ccc(OC)c(C)c2)cc1` the value was inactive: > 76.9 µM; for `COc1ccc(N2CCN(CC(O)c3c[nH]c4ccc(OC)cc34)CC2C)cc1` (stereo unspecified), inactive: > 76.9 µM; for `O=C(O)Cn1c(-c2ccccc2)nc2ccccc21`, inactive: > 76.9 µM.
For `CC(=O)N1CCc2cc(S(=O)(=O)NCCC(=O)NCCc3ccc(C)cc3)ccc21` the value was inactive: > 76.9 µM; for `C=CCn1c(SCC(=O)NCc2ccccc2)nnc1-c1ccccc1O`, inactive: > 76.9 µM.
`Cc1cc(C)n2nc(SCc3cc(=O)n4ccccc4n3)nc2n1`: the Potency was inactive: > 76.9 µM.
With `COc1cccc(C=Nc2ccc3c(c2)OCCO3)c1O`, the Potency is inactive: > 76.9 µM.
On to `COCCCNC(CC(=O)Nc1ccccc1C(=O)OC)C(=O)O` (stereo unspecified), for which the Potency is inactive: > 76.9 µM.
On to `CN1C(=O)c2ccccc2C(C(=O)NCCCN2CCCC2=O)C1c1c[nH]c2ccccc12` (stereo unspecified), for which the Potency was inactive: > 76.9 µM.
For the compound `O=C(CSc1ccccc1)NCCCN1CCOCC1`, the Potency is inactive: > 76.9 µM.
For `CCOC(=O)Nc1cc(C(=O)OCC)c(C)nc1C` the value was inactive: > 76.9 µM.
On to `Cc1cccc2cc(C#N)c(SCCN3CCCCC3)nc12`, for which the Potency result was “inactive”.
For `CCOc1cccc(C(=O)Nc2cccc(-c3nc4ncccc4o3)c2C)c1` the value was inactive: > 76.9 µM; for `CCOC(=O)c1sc(-c2ccccc2)cc1N`, inactive: > 76.9 µM.
In the case of `O=C(Oc1ccc(-c2nc(-c3ccccn3)no2)cc1)c1ccccc1`, the Potency is inactive: > 76.9 µM.
With `CC(C)OC(=O)CSc1ncnc2c1cnn2Cc1ccccc1`, the Potency result is “inactive”.
As for `O=C(NCCc1ccccc1)C1CC(=O)N(C2CCCCCC2)C1` (stereo unspecified), the Potency is inactive: > 76.9 µM.
Take `COc1ccc(S(=O)(=O)N2CCN(S(=O)(=O)c3ccc(C(F)(F)F)cc3)CC2)cc1C`: the Potency was inactive: > 76.9 µM.
For `Clc1ccc(OCc2nc(-c3ccccn3)n[nH]2)cc1` the value was inactive: > 76.9 µM.
In the case of `O=S(=O)(/N=C/N1CCOCC1)c1ccc(Cl)cc1` it was inactive: > 76.9 µM.
On to `O=C(C1CCCO1)N1CCN(S(=O)(=O)c2ccccc2)CC1` (stereo unspecified), for which the Potency was inactive: > 76.9 µM.
On to `CCOC(=O)c1snc(-c2ccc(F)cc2)c1N`, for which the Potency is inactive: > 76.9 µM.
`COc1ccc(Nc2nc(CC(C)=O)ns2)cc1OC`: the Potency is inactive: > 76.9 µM.
With `O=S1(=O)CCN2C(=N1)SC1=C2CCN(Cc2ccccc2)C1`, the Potency is inactive: > 76.9 µM.
For `CCOc1ccc(-n2c(C)nc3c(cnn3-c3ccc(Cl)cc3)c2=O)cc1` the value was inactive: > 76.9 µM.
As to `Cc1ccc(-c2nn3c(C)nnc3s2)cc1N`, the Potency was inactive: > 76.9 µM.
Turning to `O=C(CSc1nnnn1Cc1ccccc1)Nc1ccc2c(c1)OCO2`, the Potency is inactive: > 76.9 µM.
With `COc1ccc(C2N=C(Nc3ccc(C)cc3)Nc3nc(C)cc(=O)n32)cc1` (stereo unspecified), the Potency is inactive: > 76.9 µM.
With `COc1ccc(C2CC(=O)c3c([nH]c(C(=O)OC(C)C)c3C)C2)cc1OC` (stereo unspecified), the Potency was inactive: > 76.9 µM.
In the case of `O=C(C1CCN(S(=O)(=O)N2CCC3(CC2)OCCO3)CC1)N1CCC(Cc2ccccc2)CC1`, the Potency is inactive: > 76.9 µM.
In the case of `CCCc1cc(=O)[nH]c(/N=C(/NC(=O)c2ccccc2)Nc2ccc3c(c2)OCCO3)n1`, the Potency was inactive: > 76.9 µM.
In the case of `Cc1ccc(P(=O)(CC(=O)O)c2ccc(C)cc2)cc1` it was inactive: > 76.9 µM; in that of `O=C(O)C1C2C=CC(C2)C1C(=O)NCCc1ccccc1` (stereo unspecified), inactive: > 76.9 µM.
For the compound `CCOC(=O)C1CCN(C(=O)COc2ccc(S(=O)(=O)NC(C)C)cc2)CC1`, the Potency is inactive: > 76.9 µM.
Take `CCn1cc(C(=O)NCc2cccs2)c(=O)c2cc(S(=O)(=O)N3CCOCC3)ccc21`: the Potency was inactive: > 76.9 µM.
For `O=C(NCc1ccccc1)c1cc(S(=O)(=O)N2CCC3(CC2)OCCO3)ccc1F` the value was inactive: > 76.9 µM; for `N#CCCN(CCC#N)C(=O)COc1ccc(Cl)cc1Cl`, inactive: > 76.9 µM.
Consider `CC1Cc2ccccc2N1C(=O)Cc1cccs1` (stereo unspecified), for which the Potency is inactive: > 76.9 µM.
Regarding `CCOc1ccc2nc(NC(=O)COC)sc2c1`, the Potency was inactive: > 76.9 µM.
In the case of `CCN1C(=O)N(CC)C2C1N(C(C)=O)C(=O)N2C(C)=O` (stereo unspecified) it was inactive: > 76.9 µM; in that of `CCOc1cccc(-c2cc(=O)[nH][nH]2)c1`, inactive: > 76.9 µM.
In the case of `NC(=O)CSc1nnc(Cn2c(=O)sc3ccccc32)n1-c1cccc(Cl)c1`, the Potency was inactive: > 76.9 µM.
For the compound `CCC(C)(C)NC(=O)C(c1ccc(F)cc1)N(Cc1ccco1)C(=O)c1cnccn1` (stereo unspecified), the Potency is inactive: > 76.9 µM.
In the case of `O=C(c1nc(-c2ccccc2)n(-c2ccccc2)n1)N1CCN(S(=O)(=O)c2ccccc2)CC1` it was inactive: > 76.9 µM; in that of `COc1ccc(OC)c(C2/C(=C(\O)c3c(C)nc4ccccn34)C(=O)C(=O)N2CCCN(C)C)c1` (stereo unspecified), inactive: > 76.9 µM.
Regarding `CCN(CC)CCCC(C)NC1=NCCCCC1` (stereo unspecified), the Potency was inactive: > 76.9 µM.
For `COc1ccc(OC)c(C(c2nnnn2CC2CCCO2)N2CCN(C3CCCC3)CC2)c1` (stereo unspecified) the value was inactive: > 76.9 µM; for `CCCNC(=O)c1[nH]c(C)c(C(C)=O)c1C`, inactive: > 76.9 µM.
In the case of `CCC(C)(C)NC(=O)C(c1cccc(OC)c1)N(C(=O)c1ccn[nH]1)c1cccc(OC)c1` (stereo unspecified) it was inactive: > 76.9 µM; in that of `O=C(NCc1ccc(Cl)cc1)c1cc(-c2cccs2)on1`, inactive: > 76.9 µM; in that of `CCOCCCNC(=O)C(c1ccc(OC)cc1)N(Cc1ccc2c(c1)OCO2)C(=O)CNC(C)=O` (stereo unspecified), inactive: > 76.9 µM.
Turning to `Cc1oc(-c2cccc(Cl)c2)nc1CN1CCC(C(=O)NCc2cccnc2)CC1`, the Potency is inactive: > 76.9 µM.
On to `O=C(COC(=O)c1ccccn1)Nc1cccc(Cl)c1`, for which the Potency was inactive: > 76.9 µM.
`COC(=O)c1ccc(NC(=O)C2CC(=O)N(c3cc(C)ccc3C)C2)cc1` (stereo unspecified): the Potency is inactive: > 76.9 µM.
With `N#CC(C(=O)c1ccco1)c1ccccn1` (stereo unspecified), the Potency was inactive: > 76.9 µM.
